Tested on: phospho-ERK
Experiment: phospho-ERK ELISA in A431 cells
Assay type: cell-based, human
Settings: 80 nM of EGF ligand

B1: P2X: affinity matured anti-EGFR monoclonal antibody (Bin2) of parental cd; VH SEQ ID NO: 21, VL SEQ ID NO: 22 (antibody, V domains shown)
VH: MGFGLSWLFLVAILKGVQCQVQLVQSGAEVKKPGSSVKVSCKASGGTFGSYAISWVRQAPGQGLEWMGSIIPIFGAANPAQKSQGRVTITADESTSTAYMELSSLRSEDTAVYYCAKMGRGKVAFDIWGQGTMVTVSS
VL: MGTPAQLLFLLLLWLPDTTGDIVMTQSPDSLAVSLGERATINCKSSQSVLYSPNNKNYLAWYQQKPGQPPKLLIYWASTRESGVPDRFSGSGSGTDFTLTISSLQAEDVAVYYCQQYYGSPITFGGGTKVEIK
With B1 the “phospho-ERK inhibition with 80 nM EGF (in words)” value was “no inhibition”.

Reference: patent US10072299B2, “Antibodies against epidermal growth factor receptor (EGFR) and uses thereof” (Merrimack Pharmaceuticals, Inc., priority 2011, dated 2018)
